Reference: PubChem BioAssay AID1745853 (National Center for Advancing Translational Sciences (NCATS), 2022)
The other results are listed elsewhere or left out. These are further read-outs of the screen, such as a control signal, another cell line or another target. No call is given for them.

Legend:
Assay in all cases: Primary Screen for Target Class Profiling of Small Molecule Inhibitors of Methyltransferases
[1] = biological target: Glycine N-methyltransferase (Homo sapiens) (UniProt Q14749); details: purified enzyme, MTase-Glo SAH luminescence; measured here: GNMT inhibition; at 40 µM; stronger effect = lower value
Outline: (§1)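 Each enzyme was assayed with SAM and its substrate. SAH formation detected by MTase-Glo luminescence; single-point 40 uM screen[…].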

[2] = biological target: Guanidinoacetate N-methyltransferase (Homo sapiens) (UniProt Q14353); details: purified enzyme, MTase-Glo SAH luminescence; measured here: GAMT inhibition; at 40 µM; stronger effect = lower value
Outline: as §1

[3] = biological target: Histamine N-methyltransferase (Homo sapiens) (UniProt P50135); details: purified enzyme, MTase-Glo SAH luminescence; measured here: HNMT inhibition; at 40 µM; stronger effect = lower value
Outline: as §1

[4] = biological target: Nicotinamide N-methyltransferase (Homo sapiens) (UniProt P40261); details: purified enzyme, MTase-Glo SAH luminescence; measured here: NNMT inhibition; at 40 µM; stronger effect = lower value
Outline: as §1

[5] = biological target: Phenylethanolamine N-methyltransferase (Homo sapiens) (UniProt P11086); details: purified enzyme, MTase-Glo SAH luminescence; measured here: PNMT inhibition; at 40 µM; stronger effect = lower value
Outline: as §1
% is set by controls: 0 for no effect and ±100 for the full control effect.

| SMILES | activity change, negative = inhibition [1] [%] | activity change, negative = inhibition [2] [%] | activity change, negative = inhibition [3] [%] | activity change, negative = inhibition [4] [%] | activity change, negative = inhibition [5] [%] |
| --- | --- | --- | --- | --- | --- |
| CCn1c(=O)n(CC)c2cc(S(=O)(=O)Nc3ccc(OC)c(Cl)c3)ccc21 | 7.94 | 1.81 | 11.3 | -19.7 | 7.94 |
| COc1ccc(C(=O)N2CCCC2)c(OC2CCN(C(=O)C3C=CCN3)CC2)c1 (stereo unspecified) | -3.06 | -5.29 | -1.35 | -13.1 | 7.24 |
| NC(=O)[C@H]1CCS[C@@H]2C[C@]3(CCCN3C(=O)Cc3ccc(NC(=O)COc4ccc(Cl)cc4Cl)cc3)C(=O)N12 | -8.85 | -0.983 | 7.25 | -27.1 | 1.02 |
| CCc1ccc(CNC(=O)c2ncn3c2C(=O)N(C2CC2)C(C)(C(=O)NCc2ccccc2Cl)C3)cc1 (stereo unspecified) | -3.81 | 0.394 | 1.56 | -3.85 | 0.814 |
| CSc1ccc(CNC(=O)c2cc3n(n2)CC(C)(C(=O)NC2CCCCC2)N(C)C3=O)cc1 (stereo unspecified) | -7.66 | -1.5 | -1.99 | -8.26 | -4.65 |
| C(#Cc1nc2ncccc2nc1OCCN1CCCC1)c1ccccc1 | -2.71 | -4.02 | -7.21 | -12.1 | 0.187 |
| c1ccc(C2=NOC3(CCCN(CC4CCCC4)C3)C2)cc1 (stereo unspecified) | -7.3 | -13.9 | -14.6 | -19.6 | -16.9 |
| COCCNC(=O)CN1C(=O)NC(c2cccs2)C2=C1COC2=O (stereo unspecified) | -4.87 | -4.91 | -2.25 | -8.22 | -5.58 |
| C/C=C(\C)C(=O)OCC1OC(OCC2OC(OC3(CO)OC(CO)C(O)C3O)C(O)C(O)C2O)C(O)C(O)C1O (stereo unspecified) | 1.61 | 1.32 | 11.4 | -11.1 | -8.16 |
| CC1CCCN(C(=O)CN2CCCc3nc(-c4ccccc4)ncc3C2=O)C1 (stereo unspecified) | -10.5 | -1.02 | -0.154 | -2.78 | -6.03 |
| Cc1ccc(CN2C(=O)c3ccc(-c4ccco4)n3CC2(C)C(=O)NC2CCCCC2C)cc1 (stereo unspecified) | -2.56 | 0 | 3.81 | -0.007 | -2.56 |
| CC(C)c1cc(C2CCN(Cc3cn[nH]c3-c3ccccc3)CC2)[nH]n1 | -4.14 | -2.71 | -23.8 | -13.1 | -2.19 |
| CCN(c1cc(C#CCN2CCOCC2)cc(C(=O)NCc2c(C)cc(C)[nH]c2=O)c1C)C1CCC(N(C)CCOC)CC1 (stereo unspecified) | 3.77 | 5.26 | 5.87 | -5.61 | 6.23 |
| CC(C)C1c2cccn2CCN1C(=O)Nc1ccccc1Br (stereo unspecified) | 8.31 | 1.26 | -0.65 | 1.5 | 5.26 |
| O=c1cc(-c2cnccn2)oc2c(Nc3cccc(OC(F)(F)F)c3)nccc12 | -5.24 | -4.29 | -1.62 | -12.3 | 4.19 |
| CNCc1cn(C2CCN(Cc3c(OC)ccc(F)c3F)CC2)nn1 | -3.35 | 0.501 | -5.16 | -6.68 | -5.65 |
| O=C(Cn1ccc2cc(S(=O)(=O)N3CCCCC3)ccc21)NCc1ccccn1 | 7.49 | 1.95 | 7.13 | 6.72 | 5.02 |
| c1ccc(Nc2nc3c(s2)CCCc2[nH]ncc2-3)nc1 | -22.2 | 2.67 | -2.07 | -14.6 | -37.2 |
| COc1cncc(NC(=O)C2=NO[C@@H]3CN(Cc4ccccc4)C[C@H]23)c1 | -7.27 | -1.28 | 0.135 | -3.77 | 5.35 |

| SMILES | activity change, negative = inhibition [1] [%] | activity change, negative = inhibition [2] [%] | activity change, negative = inhibition [3] [%] | activity change, negative = inhibition [4] [%] | activity change, negative = inhibition [5] [%] |
| --- | --- | --- | --- | --- | --- |
| CN1C(=O)c2cc(C(=O)NC3CCCC3)nn2CC1(C)C(=O)NCc1ccc(F)cc1 (stereo unspecified) | 5.36 | 0.542 | 5.62 | 7.19 | 2.63 |
| CCc1cc(C(N)=O)ccc1-n1nc(C(C)C)c2c(-n3cnc(-c4cnn(C)c4)c3)ccnc21 | -0.314 | 4.73 | 3.27 | -19.2 | -2.57 |
| CCCC1c2ccc(C)n2CCN1C(=O)Nc1ccccc1C(F)(F)F (stereo unspecified) | -7.56 | 2.34 | -13.2 | 1.91 | -4.37 |
| CCCn1c(=O)c2cc(F)ccc2n2c(SCC(=O)Nc3ccc(OC)c(OC)c3)nnc12 | 9.93 | 1.16 | 11.7 | 1.08 | 9.58 |
| CC[C@@H]([C@H](C)O)n1ncn(-c2ccc(N3CCN(c4ccc(OC[C@@H]5CO[C@@](Cn6cncn6)(c6ccc(F)cc6F)C5)cc4)CC3)cc2)c1=O | – | -3.21 | – | -25.4 | -0.242 |
| CCCn1c(=O)c2ccc(C(=O)NC3CCCCC3)cc2n2c(=O)n(CC(N)=O)nc12 | 5.43 | 2.49 | 7.87 | 6.82 | 4.75 |
| CC1(C)CC[C@]2(C(=O)O[C@@H]3O[C@H](CO[C@@H]4O[C@H](CO)[C@@H](O)[C@H](O)[C@H]4O[C@@H]4O[C@H](CO)[C@@H](O)[C@H](O)[C@H]4O)[C@@H](O)[C@H](O[C@@H]4O[C@H](CO)[C@@H](O)[C@H](O)[C@H]4O)[C@H]3O)CC[C@]3(C)C(=CCC4[C@@]5(C)CC[C@@H](O)[C@@](C)(C(=O)O[C@@H]6O[C@H](CO)[C@@H](O)[C@H](O)[C@H]6O)C5CC[C@]43C)[C@@H]2C1 (stereo partly specified) | 3.79 | 1.4 | 9.51 | -11.9 | 1.29 |
| CC(C)CCNC(=O)C1c2c(n(C)c3ccccc23)SCC(=O)N1c1cc(F)ccc1F (stereo unspecified) | 2.8 | -1.24 | -1.64 | -4.18 | -1.24 |
| Cc1cccc(C(=O)N2CCC(c3nc(-c4cccn4C)no3)C2)c1 (stereo unspecified) | -2.8 | -0.905 | -0.71 | -10.3 | -3.79 |
| CC(C)Cn1c(=O)c2ccccc2n2c(CCC(=O)NCc3ccc(F)cc3)nnc12 | 2.03 | -4.65 | 0.456 | 3.65 | -8.41 |
| CC(=O)OC[C@@]12[C@H](O)C[C@@H](C)[C@]3(C[C@@H](c4ccoc4)OC3=O)[C@H]1C[C@H](O)C[C@]21CO1 | 0 | 0.583 | 1.94 | -10.5 | 3.55 |
| Nc1ncnc2c1ncn2[C@H]1CCCO1 | -7.83 | 6.79 | -1.75 | -13.3 | 0.206 |
| CCOc1ccc(CN2C(=O)c3cc4sccc4n3CC2(C)C(=O)NC2CCCCCC2)cc1 (stereo unspecified) | 5.65 | 0.308 | 8.85 | 8.53 | 4.2 |
| CC(=O)Nc1c2n(c3ccc(F)cc13)CC(C)(C(=O)NC1CCCC1)N(CC1CCCO1)C2=O (stereo unspecified) | -2.09 | 3.79 | -0.673 | 2.3 | -3.44 |
| O=C(O)CCC(=O)N1Cc2[nH]cnc2C[C@H]1c1nc(-c2ccc(OC(F)(F)F)cc2)no1 | -7.7 | -6.45 | -1.39 | -13.3 | 4.16 |
| O=C(O)c1ccc(C2CCCN(C(=O)c3cccc(N4CCOCC4)c3)C2)cc1 (stereo unspecified) | -5.14 | -9.76 | -3.25 | -15.4 | 6.6 |
| COCCNC(=O)c1ccc2oc(-c3ccncc3Cl)nc2c1 | -14.4 | -14.8 | -12.4 | -19.4 | -13 |
| CCc1cc(CN2CC(C(=O)O)C2)sc1-c1noc(-c2ccc(Oc3ccccc3)cc2)n1 | -3.14 | 1.61 | 4.81 | -8.79 | 1.37 |
| C/C(=C/C=C\C=C\Cc1cnco1)[C@@H](O)C(C)(C)C(N)=O | -2.85 | 2.8 | -2.38 | -10.5 | 0.542 |

| SMILES | activity change, negative = inhibition [1] [%] | activity change, negative = inhibition [2] [%] | activity change, negative = inhibition [3] [%] | activity change, negative = inhibition [4] [%] | activity change, negative = inhibition [5] [%] |
| --- | --- | --- | --- | --- | --- |
| COc1ccc(-c2nn3c(-c4ccco4)nnc3s2)cc1OC | – | -7.84 | – | -23.3 | -2.37 |
| CCc1cc(=O)[nH]c(N2CCOCC2)n1 | -3.25 | -2.77 | -0.167 | -10.2 | -1.57 |
| Cc1ccc(Cn2c(=O)c3ccccc3n3c(SCC(=O)Nc4ccc(C)c(C)c4)nnc23)cc1 | 0.991 | 4.96 | 6.07 | -1.14 | 2.26 |
| CC1CCCC(NC(=O)C2(C)Cn3c(ccc3-c3ccco3)C(=O)N2Cc2ccco2)C1C (stereo unspecified) | -1.17 | 0 | 0.71 | -8.34 | -1.88 |
| Cc1ccc(Cn2c(=O)c3ccccc3n3c(CCC(=O)Nc4ccc(C)c(C)c4)nnc23)cc1 | 3.72 | 0 | 7.55 | 3.71 | 1.82 |
| O=C(O)c1cccnc1C(=O)O | 3.64 | 16.1 | 8.68 | 0.512 | 5.98 |
| CC1(C(=O)NC2CCCCCC2)Cn2nc(-c3ccco3)cc2C(=O)N1Cc1ccccc1F (stereo unspecified) | -3.62 | 2.28 | -2.34 | -4.8 | -6.23 |
| CCc1cccc(NS(=O)(=O)c2cc3c(cc2Cl)n(C)c(=O)n3C)c1 | 5.12 | 0.873 | -1.95 | 3.06 | 2.32 |
| CCOCCCNc1nc2c(S(=O)(=O)c3ccccc3)nnn2c2ccc(Cl)cc12 | -16.6 | 3.58 | -4.68 | -5.57 | -6.62 |
| Cc1cc2[nH]c(=O)[nH]c2cc1S(=O)(=O)N1CCC(C)CC1 | 9.31 | 4.23 | 8.24 | -4.66 | 2.37 |
| CC1(C(=O)NC2CCCCC2)Cn2nc(-c3ccco3)cc2C(=O)N1c1ccccc1F (stereo unspecified) | -1.07 | 4.65 | 1.75 | 2.38 | -2.56 |
| CCOC(=O)c1cc2n(n1)CC(C)(C(=O)NCCC(C)C)N(c1ccc3c(c1)OCO3)C2=O (stereo unspecified) | -0.517 | 4.19 | 1.2 | 7.77 | -2.77 |
| C[C@@H]1CC[C@]2(C(=O)O[C@@H]3O[C@H](CO[C@@H]4O[C@H](CO)[C@@H](O)[C@H](O)[C@H]4O)[C@@H](O)[C@H](O)[C@H]3O)CC[C@]3(C)C(=CCC4[C@@]5(C)CC[C@H](O)[C@](C)(C(=O)O)C5CC[C@]43C)[C@@H]2[C@]1(C)O (stereo partly specified) | 2.05 | -1.85 | 7.19 | -14.9 | -1.16 |
| CCCn1c(=O)c2ccccc2n2c(SCC(=O)Nc3cc(Cl)ccc3C)nnc12 | -4.88 | 4 | 2.47 | -9.81 | 1.38 |
| CCCn1c(=O)c2ccc(C(=O)NCC(C)C)cc2n2c(=O)n(C(C)C(=O)c3ccc(C)c(C)c3)nc12 (stereo unspecified) | -0.124 | 0 | 1.33 | -4.03 | 3.36 |
| COc1cccc(CN2C(=O)c3cc(C(C)(C)C)nn3CC2(C)C(=O)NC2CCCCCC2)c1 (stereo unspecified) | 5.51 | 1.19 | 7.65 | 0.497 | 1.33 |
| Cn1ncc(N2CCC(CNC(=O)c3cccc4ccnn34)C2)cc1=O (stereo unspecified) | -5.92 | -4.83 | -0.181 | -14.7 | 0.718 |
| CCCn1c(=O)c2ccccc2n2c(=O)n(Cc3cc(C)ccc3C)nc12 | 5.08 | 0.055 | 9.09 | -1.02 | 5.26 |
| CCOc1ccc(OCC)c(NS(=O)(=O)c2ccc3[nH]c4c(c3c2)CCCC4)c1 | 4.06 | 4.3 | 2.55 | -1.59 | 0.152 |
